Source: PubChem BioAssay AID1508623 (National Center for Advancing Translational Sciences (NCATS), 2021)
Screen size: about 48,000 compounds; about 450 (0.94%) were called active. Another 19% or so got no clear call; they are omitted. Calls follow the shape of the dose curve; as a rule, active = well fitted inhibition curve with a large enough effect; inconclusive = small, poorly fitted or top-dose-only effect; inactive = no such curve, though single readings can be large or run the other way. This is one part of the list.

Test: Primary qHTS for Identification of Small Molecule Inhibitors of Huntingtin Promoter Activity; also: nearly all actives have a fitted effect of over 50% in size
Conditions: HEK293 HTT promoter firefly luciferase reporter (activity 0% = vehicle and -100% = no light), 24 h; series mostly up to 57.5 µM; activity change, negative = inhibition: at the top concentration
Summary of the method: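 Firefly luciferase signal from promoter-reporter HEK293 cells was scaled between vehicle (0%) and zero RLU (-100%). Compounds were tested at final concentrations of up to 57.5 uM over 24 h at 37 degrees C. PTC124 at 50 uM final served as control inhibitor.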
Potency is read from the fitted curve at half-maximal effect.

Structure (SMILES) | activity change, negative = inhibition | Potency
COc1ccc2c(c1)c1c(c(=O)n(CCc3ccccc3)c(=O)n1Cc1ccccc1)n2C | inactive: -9.96% | 
Cc1ccc(C)c2sc(NC(=O)c3ccc(S(=O)(=O)N4CCCC4)cc3)nc12 | inactive: -28.6% | 
CCOc1ccc(CNC(=O)c2ccc3c(c2)nc2n3CCOC2)cc1 | inactive: 30.4% | 
CC(=O)N1CCOc2cc(S(=O)(=O)NCc3ccc(C)cc3)c(C)cc21 | inactive: -5.36% | 
COc1ccc(N(C(=O)c2ccccc2F)S(=O)(=O)c2ccc3c(c2)n(C)c(=O)n3C)cc1 | inactive: 0% | 
Cc1c(CNCc2ccc(OC(C)C)cc2)c(C(=O)O)c(C)n1Cc1ccc(Cl)cc1 | inactive: 17.9% | 
CCN1CCN(CCCNC(=O)c2cc3c(=O)n(CC)c4ccccc4c3s2)CC1 | inactive: 7.09% | 
COc1ccc(-c2cc(C(F)(F)F)nc(SCC(=O)N(C)Cc3ccccc3)n2)cc1OC | inactive: -20.3% | 
COc1cc(O)ccc1C1CC(=O)Nc2c1c(=O)nc(SCc1ccccc1C)n2C (stereo not drawn) | inactive: -16.5% | 
COc1ccc(CNc2oc(-c3ccc(COc4ccc(Cl)cc4)o3)nc2C#N)cc1 |  | active: 22.4 µM
COc1ccc(CNC(=O)c2c(Nc3ccc(OC)cc3OC)sc(C(=O)c3ccc(Cl)cc3)c2N)cc1 | inactive: -29.8% | 
CCOC(=O)CSc1nc2sc3c(c2c(=O)n1Cc1ccccc1)CCC(C(C)(C)C)C3 (stereo not drawn) | inactive: -11.7% | 
CC(C)OCCCNC(=O)CCCn1c(=O)[nH]c2ccsc2c1=O | inactive: 0.175% | 
Cc1ccc(CNC(=O)C2CCC(CNS(=O)(=O)c3ccc4c(c3)CCCC(=O)N4)CC2)cc1 (stereo not drawn) | inactive: -5.73% | 
CCOc1ccc(CNC(=O)c2cc(=O)[nH]c3ccc(S(=O)(=O)N4CCCCC4)cc23)cc1 | inactive: 7.7% | 
Cc1cc(C)cc(Nc2cc(C(=O)NCCCN(Cc3ccccc3)C(C)C)c3ccccc3n2)c1 | inactive: -18.5% | 
COc1ccc(CN(C(=O)c2cc3ccccc3oc2=O)C2CCS(=O)(=O)C2)cc1 (stereo not drawn) | inactive: 8.42% | 
Cc1cccc(C)c1OCCSc1nc2ccccc2n1CC(=O)O | inactive: 6.56% | 
COc1ccc(N2CCN(S(=O)(=O)c3csc(C(N)=O)c3)CC2)cc1 | inactive: -21.9% | 
CCN(Cc1ccccc1)C(=O)Cn1c(=O)n(-c2ccc(F)c(Cl)c2)c(=O)c2sc3ccccc3c21 | inactive: -7.86% | 
O=C(Nc1cccc(-c2nc3ccccc3o2)c1)c1cc([N+](=O)[O-])ccc1N1CCOCC1 | inactive: -28.1% | 
COc1ccc(-c2nc3c4cnn(-c5ccccc5F)c4ncn3n2)cc1 | inactive: 11% | 
COC(=O)CC1Oc2ccc(F)cc2-n2cc(-c3ccc(Cl)cc3)nc21 (stereo not drawn) | inactive: -8.53% | 
CCOC(=O)c1ccc(NC(=O)CCS(=O)(=O)c2ccc(C)cc2)cc1 | inactive: -25.8% | 

Structure (SMILES) | activity change, negative = inhibition | Potency
Cc1cccc(-c2nc(CCNC(=O)c3ccco3)cs2)c1 | inactive: -19% | 
Cc1ccc(-n2nc(C)c3c(C(=O)NCc4ccc(F)cc4)cc(C)nc32)cc1 | inactive: -18% | 
Cc1cccc(N2CC(C)Cn3c2nc2c3c(=O)n(CC(=O)O)c(=O)n2C)c1 (stereo not drawn) | inactive: -4.8% | 
CCc1cccc(NC(=O)CCc2nc3cccnc3n2-c2ccccc2)c1 | inactive: -15.2% | 
CCOc1cc(CNC(=O)c2ccc3c(c2)N(C)C(=O)C2CCCCN32)cc(OCC)c1OCC (stereo not drawn) | inactive: 0% | 
O=C(Nc1ccc(F)cc1F)c1cc2c(=O)n3ccccc3nc2s1 | inactive: -6.36% | 
CCOC(=O)N1CCc2c(sc(NCc3ccc(N(C)C)cc3)c2C(=O)Nc2ccc(OC)cc2)C1 | inactive: -29.2% | 
CC1CCc2c(sc(NC(=O)c3ccc(Cl)cc3Cl)c2C#N)C1 (stereo not drawn) | inactive: -3.26% | 
COc1ccc(NC(=O)CCc2c(C)nc3c(c2C)c(=O)n(C)c(=O)n3C)cc1OC | inactive: -6.21% | 
O=c1c2sc3ccccc3c2n(Cc2cccc(C(F)(F)F)c2)c(=O)n1Cc1ccccc1 | inactive: -20.9% | 
COc1ccc(NC(=O)CSc2nc(-c3cccs3)cc(C(F)(F)F)c2C#N)cc1 | inactive: -4.84% | 
O=C(CN1C(=O)C2(CCCC2)NC[C@H]1c1cc(F)cc(F)c1)Nc1ccc2c(c1)C[C@@]1(C2)C(=O)Nc2ncccc21 | inactive: -1.24% | 
CCN(CC)C(=O)CSc1nc2cc3c(cc2c(=O)n1CCCCCC(=O)NCCc1ccc(OC)c(OC)c1)OCO3 | inactive: -18.5% | 
CCOc1ccc(NC(=O)c2c(NCc3sccc3C)sc3c2CCCCC3)cc1 | inactive: -21.7% | 
COc1ccc(CNC(=O)c2ccc3c(c2)N(Cc2ccccc2F)C(=O)c2ccccc2S3(=O)=O)cc1 | inactive: -11.7% | 
COCCNC(=O)CCc1c(C)nc2c(c(C)nn2-c2ccc(C)cc2)c1C | inactive: -7.53% | 
Cc1cc(F)ccc1NC(=O)CN(C)S(=O)(=O)c1ccc(C(=O)N2CCOCC2)s1 | inactive: -21.9% | 
N#Cc1c(C(F)(F)F)cc(-c2cccs2)nc1SCC(=O)Nc1ccc(F)cc1 | inactive: -23.5% | 
CCc1ccccc1NC(=O)CSC1=Nc2ccccc2C2=NC(Cc3ccccc3)C(=O)N12 (stereo not drawn) | inactive: -29.2% | 
O=C(COc1ccc([N+](=O)[O-])cc1)Nc1cccc2cccnc12 | inactive: 8.39% | 
COc1ccc(OCc2ccc(-c3nc(C#N)c(N4CCN(c5cccc(Cl)c5)CC4)o3)o2)cc1 | inactive: 0.164% | 
O=c1[nH]c2ccccc2c(=O)n1CCCl | inactive: 10.4% | 
COc1cc(Cl)c(C)cc1NC(=O)Cn1ncc2c(=O)oc3ccccc3c21 | inactive: -4.37% | 
CCC(C(=O)OC)n1cnc2c(cnn2-c2ccc(F)cc2)c1=O (stereo not drawn) | inactive: -10.3% | 

Structure (SMILES) | activity change, negative = inhibition | Potency
CCCC(=O)O[C@]1(C(=O)CO)CC[C@H]2[C@@H]3CCC4=CC(=O)CC[C@]4(C)[C@H]3[C@@H](O)C[C@@]21C | inactive: 2.78% | 
CCC(Sc1nc2nccnc2c(=O)n1Cc1ccc(F)cc1)C(=O)NC1CCCCC1 (stereo not drawn) | inactive: -9.05% | 
CCc1cccc(NC(=O)C2CCC(CNS(=O)(=O)c3csc(C(N)=O)c3)CC2)c1 (stereo not drawn) | inactive: -19.7% | 
CC(C)(C)OC(=O)N1CCC(c2c(C(=O)NCc3ccco3)cnn2-c2ccccc2)CC1 | inactive: -10.5% | 
CCOc1ccc(S(=O)(=O)c2cn(Cc3ccccc3)c3ccc(OCC)cc3c2=O)cc1 | inactive: -18.5% | 
Cc1cc(=O)n2nc(N3CCC(C(=O)NCc4ccccc4)CC3)sc2n1 | inactive: -5.75% | 
Cc1ccc(NC(=O)Cn2cnc3nc4c(cc3c2=O)CCCC4)cc1Cl | inactive: -3.48% | 
CCn1c(=O)cc(SCC(=O)NCc2ccccc2OC)c2ccccc21 | inactive: -18.2% | 
COc1ccc2cc(C(=O)NCc3ccc4c(c3)CCN4C(=O)c3ccccc3)[nH]c2c1 | inactive: -5.37% | 
Cc1cccc(C(=O)NC(=O)Nc2ccc(-c3cc(C(F)(F)F)nn3-c3ccccc3)cc2)c1 | inactive: -20.1% | 
COc1ccc(C(=O)Nc2ccc(OCc3cc(=O)n4ccsc4n3)cc2)cc1OC | inactive: 0.811% | 
Cc1cc(C)c2c(=O)cc(C(=O)Nc3ccc(S(=O)(=O)N(C)Cc4ccccc4)cc3)oc2c1 | inactive: -15.5% | 
O=C(C1CCN(S(=O)(=O)c2cccc3nonc23)CC1)N1CCN(c2ccccc2F)CC1 | inactive: -14.3% | 
Nc1nnc(SCC(=O)Nc2ccccc2)s1 | inactive: 15.7% | 
COc1cccc(NC(=O)Cn2c(=O)n(CC(=O)NCc3ccc(C)cc3)c(=O)c3sccc32)c1 | inactive: -20.1% | 
Cc1ccc2nc(-c3c[nH]c4ccccc34)c(Nc3ccccc3C)n2c1 | inactive: 11% | 
Cc1cc(C)c(NC(=O)CN2C(=O)c3cccnc3Oc3ccc(C)cc32)c(C)c1 | inactive: -22% | 
CCN1CCN(C(=O)Cn2ncc3c4ccccc4n(Cc4ccccc4)c3c2=O)CC1 | inactive: 4.02% | 
Cc1ccc(/C=C/C(=O)Nc2ccc(S(N)(=O)=O)cc2)o1 | inactive: 7.33% | 
Cn1cncc1[C@@](N)(c1ccc(Cl)cc1)c1ccc2c(c1)c(-c1cccc(Cl)c1)cc(=O)n2C | inactive: -28.7% | 
Cc1nnc(SCC2=C(C(=O)O)N3C(=O)[C@@H](NC(=O)Cn4cnnn4)[C@H]3SC2)s1 | inactive: 13.2% | 
O=C(CCS(=O)(=O)c1ccc(Br)cc1)Nc1ccc(Cl)c(C(F)(F)F)c1 | inactive: -24.9% | 
CCOC(=O)c1cccc(NC(=O)c2cn(-c3cccc(OC)c3)c(=O)c3ccccc23)c1 | inactive: -7.4% | 
Fc1cc(F)c2ncc3c(-c4ccccc4)nn(-c4cccc(Cl)c4)c3c2c1 | inactive: -2.26% | 

Structure (SMILES) | activity change, negative = inhibition | Potency
CC(C)OCCCNC(=O)C(=O)Nc1ccc2nc3n(c(=O)c2c1)CCCCC3 | inactive: 19.6% | 
Cc1cccc(Cn2c(=O)n(Cc3ccccc3)c(=O)c3oc4ccccc4c32)c1 | inactive: -10.2% | 
Cc1ccccc1NC(=O)C1CCN(C(=O)c2cnn(-c3ccccc3)c2-n2cccc2)CC1 | inactive: -10.1% | 
Cc1ccc(Sc2ccc(N3CCC(C(=O)Nc4ccc(C)c(F)c4)CC3)nn2)cc1 | inactive: 2.71% | 
Cc1cccc(-c2nc3nc(C)cc(NCc4ccccc4Cl)n3n2)c1 | inactive: -37% | 
COc1cc(NC(=O)N(Cc2ccco2)C2CCN(C(C)=O)CC2)cc(OC)c1OC | inactive: -0.295% | 
COc1ccc(-c2cc(C(F)(F)F)nc(-n3nc(C(F)(F)F)cc3C)n2)cc1 | inactive: -23% | 
O=C(NCC(c1cccs1)S(=O)(=O)c1cccs1)c1ccc(Cl)cc1 (stereo not drawn) | inactive: -19.2% | 
CC(C)c1cnc2c(c1SCc1cccc(F)c1)c(=O)n(C)c(=O)n2C | inactive: -23.9% | 
Cc1ccc(-c2nc3nc(C)cc(C)n3c2Nc2ccc3c(c2)OCCO3)cc1 | inactive: 25.3% | 
CC(=O)N1CCc2cc(Br)cc(S(=O)(=O)N3CCC(C)CC3)c21 | inactive: -12.7% | 
CCOc1ccc(NC(=O)Cn2c(=O)n(Cc3nc(-c4ccccc4)no3)c(=O)c3cc4c(cc32)OCO4)cc1 | inactive: -4.78% | 
CC(=O)c1ccc(NC(=O)c2nc(-c3ccccc3)n(-c3ccc(Cl)cc3)n2)cc1 | inactive: -12.7% | 
Cc1nc2nc(NC(=O)C(C)(C)C)[nH]n2c(=O)c1Cc1ccccc1 | inactive: 3.84% | 
Cc1ccc(Cn2ccn(CC(=O)Nc3c(C)cc(C)cc3C)c(=O)c2=O)cc1 | inactive: -22.3% | 
O=c1[nH]c(=O)n([C@H]2C[C@H](O)[C@@H](CO)O2)cc1C(F)(F)F | inactive: -15.3% | 
Cc1noc(-c2ccc(N3CCC(C)CC3)c([N+](=O)[O-])c2)n1 | inactive: 24.4% | 
COc1ccc(NS(=O)(=O)c2cc3c(cc2C)NC(=O)CO3)c(OC)c1 | inactive: -19.5% | 
COc1cc(NC(=O)C2CCN(S(=O)(=O)c3ccc4c(c3)oc(=O)n4C)CC2)cc(OC)c1 | inactive: -7.79% | 
O=C(CSC1=Nc2ccccc2C2=NC(Cc3ccccc3)C(=O)N12)Nc1ccccc1C(F)(F)F (stereo not drawn) | inactive: -15.1% | 
Cc1cccc(CNC(=O)c2oc3c(c2C)-c2nn(Cc4cccc(Cl)c4)cc2CC3)c1 | inactive: -15.4% | 
